{"source": "the supplement of paper PMC9446081", "note": "Among all 39,000 compounds or so, about 220 (0.56%) showed activity. The list shows a part of the results.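 Further: static incubation at 37 °C against the wild-type strain, values averaged over two biological replicates.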"}
{"tested_on": "Escherichia coli K-12 BW25113", "assay": "relative growth (OD600 normalised to plate interquartile mean) (fraction); higher = less growth inhibition, active = 0.2 or less", "settings": "50 µM; LB; incubation time: overnight (16-24 h)"}
{"smiles": "CN(C)c1n[nH]c(=O)[nH]c1=O", "relative growth": "inactive: 0.959"}
{"smiles": "COCC#Cc1ccc2c(c1)O[C@H](CN(C)C(=O)CN(C)C)[C@@H](C)CN([C@@H](C)CO)S2(=O)=O", "relative growth": "inactive: 0.984"}
{"smiles": "C[C@@H]1CCCCO[C@@H](CN(C)S(=O)(=O)c2cccs2)[C@H](C)CN([C@H](C)CO)C(=O)c2cc(NC(=O)Nc3cccc4ccccc34)ccc2O1", "relative growth": "inactive: 1.04"}
{"smiles": "C[C@@H]1CN([C@@H](C)CO)C(=O)c2cc(NS(=O)(=O)c3ccccc3)ccc2O[C@@H](C)CCCCO[C@H]1CN(C)Cc1ccc(C(F)(F)F)cc1", "relative growth": "inactive: 0.975"}
{"smiles": "CO[C@@H]1CN(C)C(=O)c2cc(NC(=O)Nc3cccc(F)c3)ccc2OC[C@@H](C)N(C(=O)Nc2c(C)noc2C)C[C@H]1C", "relative growth": "inactive: 1.01"}
{"smiles": "C[C@@H]1CN([C@H](C)CO)C(=O)c2cc(NS(=O)(=O)c3ccccc3)ccc2O[C@@H]1CN(C)CC1CC1", "relative growth": "inactive: 1"}
{"smiles": "COc1ccccc1S(=O)(=O)N(C)C[C@H]1OCc2cn(nn2)CCCC(=O)N([C@@H](C)CO)C[C@H]1C", "relative growth": "inactive: 1.05"}
{"smiles": "C[C@H]1CN([C@@H](C)CO)C(=O)c2cc(NC(=O)Nc3cccc4ccccc34)ccc2O[C@H]1CN(C)S(=O)(=O)c1cccs1", "relative growth": "inactive: 1.01"}
{"smiles": "C[C@@H]1CCCCO[C@H](CN(C)S(=O)(=O)c2cccs2)[C@@H](C)CN([C@@H](C)CO)C(=O)c2cc(NC(=O)CCC(F)(F)F)ccc2O1", "relative growth": "inactive: 1.02"}
{"smiles": "Cc1noc(C)c1NC(=O)N(C)C[C@@H]1OCCCC[C@@H](C)Oc2ccc(NS(=O)(=O)c3ccccc3)cc2C(=O)N([C@H](C)CO)C[C@@H]1C", "relative growth": "inactive: 0.971"}
{"smiles": "C[C@@H]1CN([C@H](C)CO)C(=O)c2c(c3ccccc3n2C)-c2ccccc2CO[C@@H]1CN(C)Cc1cccc(F)c1", "relative growth": "inactive: 1"}
{"smiles": "COc1ccc(NC(=O)N(C)C[C@@H]2OCCCC[C@@H](C)Oc3ccc(NC(=O)Nc4c(C)noc4C)cc3C(=O)N([C@H](C)CO)C[C@H]2C)cc1", "relative growth": "inactive: 0.982"}
{"smiles": "C[C@@H]1CN([C@H](C)CO)C(=O)c2cc(NS(=O)(=O)c3ccc(F)cc3)ccc2O[C@@H](C)CCCCO[C@@H]1CN(C)Cc1ccc(C(=O)O)cc1", "relative growth": "inactive: 1"}
{"smiles": "C[C@@H]1CN([C@@H](C)CO)C(=O)c2cccc(NS(=O)(=O)c3cn(C)cn3)c2O[C@@H]1CN(C)S(=O)(=O)c1ccccc1", "relative growth": "inactive: 0.975"}
{"smiles": "Cc1noc(C)c1S(=O)(=O)Nc1ccc2c(c1)C(=O)N([C@H](C)CO)C[C@@H](C)[C@@H](CN(C)Cc1ccc(C(F)(F)F)cc1)OCCCC[C@H](C)O2", "relative growth": "inactive: 1.07"}
